For 20 compounds, IC50 results are on record in patent US20230159453A1 (COCRYSTAL PHARMA, INC., priority 2020, published 2023).

The target of this assay is Noro protease (Norovirus, UniProt Q83883). The experiment in a line: Norovirus protease inhibition assay (Noro-Norwalk FRET protease assay). The settings on record: IC50 (μM), peptide substrate 10 μM, 90 minutes at 37° C., compounds 200 μM to 10.2 nM.
For the compound `CC(C)C[C@H](NC(=O)OC(c1ccccc1)C(F)(F)c1cccc(Cl)c1)C(=O)N[C@@H](C[C@@H]1CCNC1=O)C(=O)CO` (some centres unmarked) [Compound C279], the IC50 (in general, the concentration at which inhibition is half-maximal) was greater than 200 µM.

The compound `CC(C)C[C@H](NC(=O)OC(Cc1ccccc1)c1ccccc1)C(=O)N[C@@H](C[C@@H]1CCNC1=O)C(=O)C(=O)N1CCN(C(=O)OC(C)(C)C)CC1` (some centres unmarked) [Compound C280] returned an IC50 greater than 200 µM.

In turn, `CC1(C)CC(CC(NC(=O)[C@H](CC2CCCCC2)NC(=O)OC(c2cccc(Cl)c2)C(C)(C)c2cccc(Cl)c2)C(=O)C(=O)NC2CC2)C(=O)N1` (some centres unmarked) [Compound C281] gave a half-maximal inhibitory concentration (IC50) greater than 200 µM.

In turn, `CC(C)C[C@H](NC(=O)OC(Cc1cccc(Cl)c1)c1cccc(Cl)c1)C(=O)N[C@H](C=O)C[C@@H]1CCNC1=O` (stereo partly drawn) [Compound C282, 1,2-Bis(3-chlorophenyl)ethyl ((S)-4-methyl-1-oxo-1-(((S)-1-oxo-3-((S)-2-oxopyrrolidin-3-yl)propan-2-yl)amino)pentan-2-yl)carbamate] returned a 50% inhibitory concentration (IC50) of 1 µM.

`CC(C)C[C@H](NC(=O)OC(Cc1ccccc1)c1ccccc1)C(=O)N[C@@H](C[C@@H]1CCNC1=O)C(=O)C(=O)N1CCNCC1` (some centres unmarked) [Compound C283] returned a 50% inhibitory concentration (IC50) greater than 200 µM.

Compound `CC(C)(c1cccc(Cl)c1)C(OC(=O)N[C@@H](Cc1ccccc1)C(=O)N[C@@H](C[C@@H]1CCNC1=O)C(=O)C(=O)NC1CC1)c1ccccc1` (some centres unmarked) [Compound C284] gave an IC50 of no less than 202 µM.

`CC(C)C[C@H](NC(=O)O[C@@H](c1cccc(F)c1)C(C)(C)c1cccc(Cl)c1)C(=O)N[C@@H](C[C@@H]1CCNC1=O)C(=O)C(=O)NC1CC1` [Compound C285] gave a 50% inhibitory concentration (IC50) of 27.1 µM.

`CC(C)C[C@H](NC(=O)OC(c1cccc(Cl)c1)C(C)(C)c1cccc(Cl)c1)C(=O)N[C@@H](C[C@@H]1CCNC1=O)C(=O)C(=O)NC1CC1` (some centres unmarked) [Compound C286] yielded a concentration for half-maximal inhibition (IC50) of 15.2 µM.

`CCN1CCN(C(=O)C(=O)[C@H](C[C@@H]2CCNC2=O)NC(=O)[C@H](CC(C)C)NC(=O)OC(c2ccccc2)C(C)(C)c2cccc(Cl)c2)CC1` (some centres unmarked) [Compound C287] displayed a concentration for half-maximal inhibition (IC50) greater than 200 µM.

In the case of `CC1(C)CC(CC(NC(=O)[C@H](CC2CCCCC2)NC(=O)OC(c2cccc(Cl)c2)C(C)(C)c2cccc(Cl)c2)C(=O)C(N)=O)C(=O)N1` (some centres unmarked) [Compound C288], half-maximal inhibition (IC50) required 119 µM.

On to `CCCCC[C@H](NC(=O)OC(c1ccccc1)C(C)(C)c1cccc(Cl)c1)C(=O)N[C@@H](C[C@@H]1CCNC1=O)C(=O)C(=O)NC1CC1` (some centres unmarked) [Compound C289], for which the IC50 came to 86 µM.

`O=C(N[C@@H](CC1CCCCC1)C(=O)NC(CC1CC2(CCC2)NC1=O)C(=O)C(=O)NC1CC1)OCc1cccc(Cl)c1` (stereo partly drawn) [Compound C290, 3-Chlorobenzyl ((2S)-3-cyclohexyl-1-((4-(cyclopropylamino)-3,4-dioxo-1-(6-oxo-5-azaspiro[3.4]octan-7-yl)butan-2-yl)amino)-1-oxopropan-2-yl)carbamate] displayed an IC50 of 93.2 µM.

With `CC(C)C[C@H](NC(=O)OC(c1ccccc1)C1(c2cccc(Cl)c2)CCCCC1)C(=O)N[C@H](C=O)C[C@@H]1CCNC1=O` (some centres unmarked) [Compound C291], inhibition was half-maximal at 2.5 µM (IC50).

On to `CC(C)C[C@H](NC(=O)OC(c1ccc(F)cc1)C1(c2cccc(Cl)c2)CC1)C(=O)N[C@@H](C[C@@H]1CCNC1=O)C(=O)C(=O)NC1CC1` (some centres unmarked) [Compound C292], for which the IC50 worked out at 90.5 µM.

In turn, `CC(C)C[C@H](NC(=O)OC(c1ccc(Cl)cc1)C1(c2cccc(Cl)c2)CCCC1)C(=O)N[C@H](C=O)C[C@@H]1CCNC1=O` (some centres unmarked) [Compound C293] came in with a half-inhibitory concentration (IC50) of 8.7 µM.

For the compound `CC(C)C[C@H](NC(=O)OC(c1ccccc1)C1(c2cccc(Cl)c2)CCC1)C(=O)N[C@@H](C[C@@H]1CCNC1=O)C(=O)C(=O)NC1CC1` (some centres unmarked) [Compound C294], the 50% inhibitory concentration (IC50) was 177 µM.

In turn, `CCC(CC)(c1cccc(Cl)c1)C(OC(=O)N[C@@H](CC(C)C)C(=O)N[C@H](C=O)C[C@@H]1CCNC1=O)c1ccccc1` (some centres unmarked) [Compound C295] showed an IC50 of 5.1 µM.

`CC(C)C[C@H](NC(=O)OC(c1ccccc1)C(C)(C)c1cccc(F)c1)C(=O)N[C@@H](C[C@@H]1CCNC1=O)C(=O)C(=O)NC1CC1` (some centres unmarked) [Compound C296] displayed an IC50 of 115 µM.

In the case of `CC(C)C[C@H](NC(=O)OC(c1ccccc1)C1(c2cccc(Cl)c2)CCCC1)C(=O)N[C@@H](C[C@@H]1CCNC1=O)C(=O)C(=O)NC1CC1` (some centres unmarked) [Compound C297], the IC50 is no less than 217 µM.

On to `CC(C)C[C@H](NC(=O)OC(c1ccc(Cl)cc1)C1(c2cccc(Cl)c2)CCCC1)C(=O)N[C@@H](C[C@@H]1CCNC1=O)C(=O)C(=O)NC1CC1` (some centres unmarked) [Compound C298], for which the IC50 is no less than 218 µM.
